# Source: PubChem BioAssay (NCATS)
# Several values for one entry are separate records, joined by “and”; a condition that tells them apart may be missing. Equal entries are not always repeated. This list was built around the results that the source calls inconclusive (neither active nor inactive); the mix of calls is not that of the screen. A call without a number means that no potency is given here. For some of these results: Where the call is inconclusive, the potency comes from a doubtful curve fit. Activity calls are given as the source filed them. Calls come from the whole dose curve; as a rule, active = well fitted curve in the direction sought with a large enough effect; inconclusive = small, poorly fitted or top-dose-only effect, or another doubt; inactive = no such curve, though single readings can be large; an effect the other way counts as inactive or inconclusive.
# Assays:
# [1] = target: Cytochrome P450 3A7 (Homo sapiens) (UniProt P24462); test: Cytochrome P450 family 3 subfamily A member 7 (CYP3A7) small molecule antagonists: luciferase biochemical qHTS assay (AID 1963596); note: nearly all actives have a fitted effect of over 40% in size; note: potency is the fitted concentration of half-maximal effect
# Procedure, shortened: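 P450-Glo luminescent assay: CYP3A7 enzyme converts a proluciferin substrate to luciferin, detected by luciferase reagent; light proportional to activity. Compounds in DMSO preincubated 10 min with enzyme-substrate mix at room temperature, then NADPH regeneration added for 1 h.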
# [2] = Viability qHTS for spleen associated tyrosine kinase inhibitor (SYKi) drug resistant MV4-11 cells (AID 1963824); note: nearly all actives have a fitted effect of over 35% in size; note: potency is the fitted concentration of half-maximal effect
# Procedure, shortened: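 CellTiter-Glo luminescence, read 10 min after reagent addition, reports viability after a 72 hr compound exposure. Cells are an MV4-11 line made resistant to SYK inhibition, seeded at 500 per well onto compound-containing plates.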
# [3] = Cellular viability qHTS for adrenocortical cancer (ACC) cell line NCI-H295R (AID 1963990); details: CellTiter-Glo ATP luminescence, 48 h; series mostly up to 46.1 µM; note: nearly all actives have a fitted effect of over 60% in size; note: potency is the fitted concentration of half-maximal effect
# Procedure, shortened: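 Viability of NCI-H295R after 48 h of treatment (final up to 46 uM) measured through cellular ATP luminescence.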
# [4] = Viability qHTS for spleen associated tyrosine kinase inhibitor (SYKi) naive MV4-11 cells (AID 1963823); details: MV4-11 AML viability, CellTiter-Glo luminescence, 72 h; series mostly up to 45 µM; note: potency is the fitted concentration of half-maximal effect; nearly all actives have a fitted effect of over 40% in size
# Procedure, shortened: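 CellTiter-Glo luminescence, 10 min room-temperature incubation, gave viability. Cells: naive MV4-11 (500/well), treated 72 hr at 37 C, 5% CO2.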
# [5] = Cellular viability qHTS for adrenocortical cancer (ACC) cell line SW-13 (AID 1963989); details: SW-13 ACC cells viability, CellTiter-Glo, 48 h; activity (max response): hits give low values; note: potency is the fitted concentration of half-maximal effect; nearly all actives have a fitted effect of over 65% in size
# Procedure, shortened: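 Here, serum-free SW-13 cultures were dosed up to 46 uM. Following 48 h, ATP-dependent luminescence (CellTiter-Glo) reported viable cells, and logistic modeling produced IC50 values.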
# [6] = Quantitative highthroughput screen to assess conditional lethalithy of NOMO1 cells grown in RPMI1640 with dialyzed fetal bovine serum (RPMI+ds) (AID 1963877); note: nearly all actives have a fitted effect of over 30% in size
# Procedure, shortened: (§1)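 Each medium arm—HPLM with 10% dialyzed FBS, or RPMI1640 with 5 mM glucose and 10% untreated or dialyzed FBS—was screened against an 11-point, 3-fold compound titration for 48 h at 37 °C, with CellTiter-Glo luminescence as endpoint.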
# [7] = Quantitative highthroughput screen to assess conditional lethalithy of NOMO1 cells grown in Human Plasma-Like Medium with dialyzed fetal bovine serum (HPLM+ds) (AID 1963878); details: NOMO1 AML cells in HPLM+ds, CellTiter-Glo viability, 48 h; viability: at 45.8 µM (top of the series); note: nearly all actives have a fitted effect of over 35% in size
# Procedure, shortened: as §1
# [8] = Quantitative highthroughput screen to assess conditional lethalithy of P12 Ichikawa cells grown in RPMI1640 with dialyzed fetal bovine serum (RPMI+ds) (AID 1963880); details: Potency: P12-Ichikawa viability; note: nearly all actives have a fitted effect of over 35% in size
# Procedure, shortened: as §1
# [9] = Quantitative highthroughput screen to assess conditional lethalithy of SEM cells grown in Human Plasma-Like Medium with dialyzed fetal bovine serum (HPLM+ds) (AID 1963882); note: nearly all actives have a fitted effect of over 35% in size
# Procedure, shortened: as §1
# [10] = Quantitative highthroughput screen to assess conditional lethalithy of SEM cells grown in RPMI1640 with unreated serum (RPMI+s) (AID 1963883); details: SEM B-ALL cells, CellTiter-Glo viability, 48 h; viability: at 45.8 µM (top of the series); note: nearly all actives have a fitted effect of over 35% in size
# Procedure, shortened: as §1
# Tags give direction and shape of the fitted curve.
# UniProt P24462, sequence (P24462 whole entry, looked up): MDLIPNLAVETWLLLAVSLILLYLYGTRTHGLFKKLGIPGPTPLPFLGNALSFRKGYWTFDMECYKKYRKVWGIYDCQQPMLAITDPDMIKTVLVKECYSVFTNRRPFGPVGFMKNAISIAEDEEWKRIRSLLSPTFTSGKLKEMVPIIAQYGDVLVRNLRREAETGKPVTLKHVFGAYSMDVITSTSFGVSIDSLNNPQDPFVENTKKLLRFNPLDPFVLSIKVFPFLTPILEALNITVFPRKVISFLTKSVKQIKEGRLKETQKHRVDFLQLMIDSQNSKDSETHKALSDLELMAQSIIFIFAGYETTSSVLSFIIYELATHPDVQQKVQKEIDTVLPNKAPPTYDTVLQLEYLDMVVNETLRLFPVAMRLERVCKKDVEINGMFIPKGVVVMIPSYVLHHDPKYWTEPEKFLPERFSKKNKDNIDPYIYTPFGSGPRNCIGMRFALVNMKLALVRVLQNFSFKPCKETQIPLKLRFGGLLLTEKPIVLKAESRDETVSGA
smiles,measurement,setting,value
O=C(O)CCC(=O)OC[C@@H](NC(=O)C(Cl)Cl)[C@H](O)c1ccc([N+](=O)[O-])cc1,Potency,[1],inactive
same,Potency,[2],"inconclusive: 10.6 µM [cytotoxic, partial curve]"
same,Potency,[3],inactive
NC[C@@](O)(c1ccc(Cl)cc1)c1ccc(-c2cn[nH]c2)cc1,Potency,[1],"inconclusive: 3.55 µM [inhibitor, partial curve, poor fit]"
same,Potency,[2],active: 3.26 µM and active: 6.61 µM
same,Potency,[3],active: 10 µM
CCCc1ncc(C(=O)O)s1,Potency,[1],inactive
same,Potency,[2],inactive
same,Potency,[3],"inconclusive: 4.11 µM [cytotoxic, partial curve, poor fit]"
CCCCc1ncc(/C=C(\Cc2cccs2)C(=O)O)n1Cc1ccc(C(=O)O)cc1,Potency,[1],"inconclusive: 38.9 µM [inhibitor, single point]"
same,Potency,[3],inactive
CN(Cc1cccs1)c1ncnc2ccc(-c3ccc4c(c3)OCO4)cc12,Potency,[4],active: 11.6 µM
O=c1[nH]c(=O)n([C@H]2C[C@H](O)[C@@H](CO)O2)cc1C(F)(F)F,Potency,[1],inactive
same,Potency,[5],"inconclusive: 731 nM [cytotoxic, full curve] and inconclusive: 4.47 µM [cytotoxic, full curve]"
same,Potency,[3],"inconclusive: 6.31 µM [cytotoxic, full curve]"
CC(C)(OCc1nn(Cc2ccccc2)c2ccccc12)C(=O)O,Potency,[1],"inconclusive: 13.5 µM [inhibitor, partial curve, poor fit]"
same,Potency,[6],inactive
same,Potency,[7],inactive
same,Potency,[8],inactive
same,Potency,[9],inactive
same,Potency,[10],inactive
COc1cc(OC)c2c(=O)[nH]c(-c3cc(C)c(OCCO)c(C)c3)nc2c1,Potency,[4],"inconclusive: 8.33 µM [cytotoxic, partial curve]"
